According to the RNAGym collection of RNA variant scans (doi:10.1101/gad.245936.114):
Variants at the background level are over-represented here.

B1: tRNA (parent)
chain: CUCUCGGUAGCCAAGUUGGUUUAAGGCGCAAGACUUUAAUUUAUCACUACGAAAUCUUGAGAUCGGGCGUUCGACUCGCCCCCGGGAGAUUUUUUCCUCGAGCAA

Variants of: B1
Assay: nonsense suppression (GFP-seq) (ratio to wild type); higher = more function; SUP4oc tRNA, yeast GFP reporter sort-seq
Method in brief: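 Yeast were grown in raffinose/galactose medium with 80 mg/L adenine, each strain bearing a genome-integrated ochre-suppressor tRNA variant from a ~3% random-mutation library, a galactose-driven GFP ochre reporter, and RFP. After sorting into GFP/RFP bins, every bin was sequenced on an Illumina platform at phred ≥30. The GFPSEQ value, a measure of nonsense suppression, is the weighted bin median GFP/RFP relative to the unmutated parent tRNA, using each variant's estimated cell share per bin as the weight. Only variants with ≥100 reads and ≥30 cells were included.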

Compared with CUCUCGGUAGCUAAGUUGGUUUAAGGCGCAAGACUUUAAUUUAUCACUACGAAAUCUUGAGAUCGGGCGUUCGACUCGCCGCCGGGAGAUUUUUUCCUCGAGCAA, CUCUCGGUAGCUAAGUUGGUUUAAGGCGCAAGACUUUAAUUUAUCACUACGAAAUCUUGAGAUCGGGCGUUCGACUCGCCCUCGGGAGAUUUUUUCCUCGAGCAA is higher in nonsense suppression: no more than 0.026 for the first, 0.32 for the second.

CUCUCGGUAGCUAAAUUGGUUUAAGGCGCAAGACAUUAAUUUAUCACUACGAAAUCUUGAGAUCGGGCGUUCGACUCGCCCCCGGGAGAUUUUUUCCUCGAGCAA and CUCUCGGUAGCUAACUUGGUUUAAGGCGCAAGACUUUAAUUUAUCACUACGAAAUCUUGAGAUCGGGCGUUGGACUGGCCCCCGGGAGAUUUUUUCCUCGAGCAA cannot be ordered by nonsense suppression: no more than 0.026 for the first, no more than 0.026 for the second.

CUCUCGGUAGCUAAUUUGGUUUAAGGCGCAAGACUUUAAUUUAUCACUACGAAAUCUUGAGAUCGGGCGUUCGACUCGCCCCCGGGAGAUUUUUUCCUCGAGCAA and CUCUCGGUAGCUAAGUUCAUUUAAGGCGCAAGACUUUAAUUUAUCACUACGAAAUCUUGAGAUCGGGCGUUCGCCACGCCCCCGGCAGAUUUUUUCCUCGAGCAA cannot be ordered by nonsense suppression: no more than 0.026 for the first, no more than 0.026 for the second.

CUCUCGGUAGCUAAGUUUGUUUAAGGCGCCAGACUUUAAUUUAUCACUACGAAAUCUUGAGAUCGGGCGUUCGACUCGCCCCCAGGAGCUUUUUUCCUCGAGCAA and CUCUCGGUAGCUAAGUUUGUUUAAGGCGCAAGACUUUAAUUUAUCACUACGAAAUCUUGAGAUCGGGCGAUCGACUCGUCCCCGGGAGAUUUUUUCCUCGAGCAA cannot be ordered by nonsense suppression: no more than 0.026 for the first, no more than 0.026 for the second.

CUCUCGGUAGCUAAGUUGAUUUAAGGCGCAAGACUUUAAUUUAUCACUACGAAAUCUUGAGAUCGGGCGUUCGACUCGCCCCCGGGACAUUUUUUCCUCGAGCAA and CUCUCGGUAGCUAAGUUGUUUUAAGGCGCAAGACUUUAAUUUAUCACUACGAAAUCUUGAGAUCGGGCGUUCGACUCGCCCCCGGGAGAUUUUUUCCUCGAGCAA cannot be ordered by nonsense suppression: no more than 0.026 for the first, no more than 0.026 for the second.

CUCUCGGUAGCUAAGUUGGUUUAAAGCGCAAGACUUUAAUUUAUCACUACGAAAUCUUGAGAUCGGGCGUUCGGCUCGCCCCCGGGAGAUUUUUUCCUCGAGCAA and CUCUCGGUAGCUAAGUUGGUUUAACGCGCAAGACUUUAAUUUAUCACUACGAAAUCGUGAGAUCGGGCGUUCGACUCGCCCCGGGGAGAUUUUUUCCUCGAGCAA cannot be ordered by nonsense suppression: no more than 0.026 for the first, no more than 0.026 for the second.

CUCUCGGUAGCUAAGUUGGUUUAAUACCCAAGACUUUAAUUUAUCACUACGAAAUCUUGAGAUCGGGCGUUCGACUCGCCCCCGGAAGGUUUUUUCCUCGAGCAA and CUCUCGGUAGCUAAGUUGGUUUAAGGCCCGAGAAUUUAAUUUAUCACUACGAAAUCUUGAGAUCGGGCGUUCGACUCGCGCGCGGGAGAUUUUUUCCUCGAGCAA cannot be ordered by nonsense suppression: no more than 0.026 for the first, no more than 0.026 for the second.

CUCUCGGUAGCUAAGUUGGUUUAAGGCGCAAAACUUUAAUUUAUCACUACGAAAUCUUGAGAUCGGGCGUUCGAUUCGCCCCCGGGAGCUUUUUUCCUCGAGCAA and CUCUCGGUAGCUAAGUUGGUUUAAGGCGCAAAACUUUAAUUUAUCACUACGAAAACUUGAGAUCGGGCGUUCGACUCGCCCCCGGGAGAUUUUUUCCUCGAGCAA cannot be ordered by nonsense suppression: no more than 0.026 for the first, no more than 0.026 for the second.

CUCUCGGUAGCUAAGUUGGUUUAAGGCGCAACACUUUAAUUUAUCACUACGAAAUCUUGAGAUCGGGCGUUCGACUGUCCCCCGGGAGAUUUUUUCCUCGAGCAA and CUCUCGGUAGCUAAGUUGGUUUAAGGCGCAAGACUUUAAUUUAUCACUACGAAAUCUUAAGAUCGGGCGUUCGACGCGCCCCCGGGAGAUUUUUUCCUCGAGCAA cannot be ordered by nonsense suppression: no more than 0.026 for the first, no more than 0.026 for the second.

CUCUCGGUAGCUAAGUUGGUUUAAGGCGCAAGACUUUAAUUUAUCACUACGAAAUCUUGAGAUCCGGCGUUCGACUCGCCACCGGGAGAUUUUUUCCUCGAGCAA and CUCUCGGUAGCUAAGUUGGUUUAAGGCGCAAGACUUUAAUUUAUCACUACGAAAUCUUGAGAUCGGACGUUCGACUCACCCCCGGGAGAUUUUUUCCUCGAGCAA cannot be ordered by nonsense suppression: no more than 0.026 for the first, no more than 0.026 for the second.

First: CUCUCGGUAGCUAAGUUGGUUUAAGGCGCAAGACUUUAAUUUAUCACUACGAAAUCUUGAGAUCGGGCGUUCGACUCACCCCCGGGAGAUUUUUUCCUCGAGCAA
Second: CUCUCGGUAGCUAAGUUGGUUUAAGGCGCAAGACUUUAAUUUAUCACUACGAAAUCUUGAGAUCGGGCGUUCGACUCUCCCCCGGGAGAUUUUUUCCUCGAGCAA
The nonsense suppression of the first is lower: 0.0268 for the first, 0.0326 for the second.

CUCUCGGUAGCUAAGUUGGUUUAAGGCGCAAGACUUUAAUUUAUCACUACGAAAUCUUGAGAUCGGGCGUUCGACUCUCCCCCGGAAGAUUUUUUCCUCGAGCAA and CUCUCGGUAGCUAAGUUGGUUUAAGGCGCAAGACUUUAAUUUAUCACUACGAAAUCUUGAGAUCGGGCGUUCGACUCGCCCCCAGGAGAUUUUUUCCUCGAGCAA cannot be ordered by nonsense suppression: no more than 0.026 for the first, no more than 0.026 for the second.

Compared with CUCUCGGUAGCUAAGUUGGUUUAAGGCGCAAGACUUUAAUUUAUCACUACGAAAUCUUGAGAUCGGGCGUUCGACUCGCCCCCUGGAGAUUUUUUCCUCGAGCAA, CUCUCGGUAGCUAAGUUGGUUUAAGGCGCAAGACUUUAAUUUAUCACUACGAAAUCUUGAGAUCGGGCGUUCGACUCGCCCCCGGGAUAUUUUUUCCUCGAGCAA is lower in nonsense suppression: 0.117 for the first, 0.0717 for the second.

CUCUCGGUAGCUAAGAUGGUUUAAGGCGCAAGAAUUUAAUUUAUCACUACGAAAUCUUGAGAUCGGGCGUUCGACUCGCCCCCGGGAGAUUUUUUCCUCGAGCAA gave a nonsense suppression of no more than 0.026.
